Laboratory results taken from patent publication US20130084291A1 (ACCELERON PHARMA, published 2013).

Target: TNF-alpha
Experiment: cell-based or functional assay

TNF-alpha, sequence (P01375 77-233): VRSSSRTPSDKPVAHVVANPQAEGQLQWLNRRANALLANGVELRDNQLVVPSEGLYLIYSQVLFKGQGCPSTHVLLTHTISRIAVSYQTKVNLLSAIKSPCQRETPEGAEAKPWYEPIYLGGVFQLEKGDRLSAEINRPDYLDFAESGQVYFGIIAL

B1: TNFR2-h(2)Fc (Fc fusion)
chain: LPAQVAFTPYAPEPGSTCRLREYYDQTAQMCCSKCSPGQHAKVFCTKTSDTVCDSCEDSTYTQLWNWVPECLSCGSRCSSDQVETQACTREQNRICTCRPGWYCALSKQEGCRLCAPLRKCRPGFGVARPGTETSDVVCKPCAPGTFSNTTSSTDICRPHQICNVVAIPGNASMDAVCTSTSPTRSMAPGAVHLPQPVSTRSQHTQPTPEPSTAPSTSFLLPMGPSPPAEGSTGDTG[… human IgG1 Fc and a few adjoining residues …]
IC50 (ng/ml), WEHI assay as in Example 3: 6.6 ng/mL
